Data as given in the supplement of paper PMC8728848.
Some of the results follow.

Key:
Assay in all cases: glycan array binding signal (z-score within array); higher = stronger binding
Conditions in all cases: glycan notation: IUPAC condensed, linker removed
[1] = target: GlcNAc(b1-4)GlcNAc(b1-4)GlcNAc(b1-4)GlcNAc(b1-4)GlcNAc
In short: (§1)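 Glycan array data came from 3228 arrays in the Consortium for Functional Glycomics database, and only arrays with an available protein sequence were kept. Glycan names were put into IUPAC-condensed notation, and columns mapping to the same glycan were averaged. The binding signal is a within-array Z-score, averaged across arrays of one protein sequence run at different concentrations or buffers and across linkers. A negative Z-score can be read as non-binding.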

[2] = target: GlcNAc(b1-4)GlcNAc(b1-4)GlcNAc(b1-4)GlcNAc(b1-4)GlcNAc(b1-4)GlcNAc
In short: as §1

[3] = target: GlcNAc(b1-4)[GlcNAc(b1-6)]GalNAc
In short: as §1

[4] = target: GlcNAc(b1-6)Gal(b1-4)GlcNAc
In short: as §1

GlcNAc(b1-6)GalNAc = target: GlcNAc(b1-6)GalNAc
In short: as §1

[5] = target: GlcNAc6S(b1-3)Gal(b1-4)GlcNAc
In short: as §1

Kdn(a2-3)Gal(b1-3)GalNAc = target: Kdn(a2-3)Gal(b1-3)GalNAc
In short: as §1

Kdn(a2-3)Gal(b1-3)GlcNAc = target: Kdn(a2-3)Gal(b1-3)GlcNAc
In short: as §1

Kdn(a2-3)Gal(b1-4)Glc = target: Kdn(a2-3)Gal(b1-4)Glc
In short: as §1

Kdn(a2-3)Gal(b1-4)GlcNAc = target: Kdn(a2-3)Gal(b1-4)GlcNAc
In short: as §1

[6] = target: Kdn(a2-3)Gal(b1-4)[Fuc(a1-3)]GlcNAc
In short: as §1

Kdn(a2-6)Gal(b1-4)GlcNAc = target: Kdn(a2-6)Gal(b1-4)GlcNAc
In short: as §1

[7] = target: Man(a1-2)Man(a1-2)Man(a1-3)Man
In short: as §1

[8] = target: Man(a1-2)Man(a1-2)Man(a1-6)[Man(a1-3)]Man
In short: as §1

Man(a1-2)Man(a1-3)Man = target: Man(a1-2)Man(a1-3)Man
In short: as §1

[9] = target: Man(a1-2)Man(a1-3)[Man(a1-2)Man(a1-6)]Man
In short: as §1

[10] = target: Man(a1-2)Man(a1-3)[Man(a1-2)Man(a1-6)]Man(a1-6)[Man(a1-2)Man(a1-2)Man(a1-3)]Man
In short: as §1

[11] = target: Man(a1-2)Man(a1-3)[Man(a1-2)Man(a1-6)]Man(a1-6)[Man(a1-2)Man(a1-2)Man(a1-3)]Man(b1-4)GlcNAc(b1-4)GlcNAc
In short: as §1

[12] = target: Man(a1-2)Man(a1-3)[Man(a1-6)]Man(a1-6)[Man(a1-2)Man(a1-3)]Man(b1-4)GlcNAc(b1-4)GlcNAc
In short: as §1

[13] = target: Man(a1-2)Man(a1-6)[Man(a1-3)]Man(a1-6)[Man(a1-2)Man(a1-2)Man(a1-3)]Man
In short: as §1

[14] = target: Man(a1-2)Man(a1-6)[Man(a1-3)]Man(a1-6)[Man(a1-2)Man(a1-2)Man(a1-3)]Man(b1-4)GlcNAc(b1-4)GlcNAc
In short: as §1

Man(a1-3)[Man(a1-6)]Man = target: Man(a1-3)[Man(a1-6)]Man
In short: as §1

[15] = target: Man(a1-3)[Man(a1-6)]Man(a1-6)[Man(a1-2)Man(a1-3)]Man(b1-4)GlcNAc(b1-4)GlcNAc
In short: as §1

[16] = target: Man(a1-3)[Man(a1-6)]Man(a1-6)[Man(a1-3)]Man
In short: as §1

[17] = target: Man(a1-3)[Man(a1-6)]Man(a1-6)[Man(a1-3)]Man(b1-4)GlcNAc(b1-4)GlcNAc
In short: as §1

[18] = target: Man(a1-3)[Man(a1-6)]Man(b1-4)GlcNAc(b1-4)GlcNAc
In short: as §1

[19] = target: Man(a1-3)[Man(a1-6)]Man(b1-4)GlcNAc(b1-4)[Fuc(a1-6)]GlcNAc
In short: as §1

Man(a1-6)Man = target: Man(a1-6)Man
In short: as §1

Man(b1-4)GlcNAc = target: Man(b1-4)GlcNAc
In short: as §1

MurNAc(b1-4)GlcNAc = target: MurNAc(b1-4)GlcNAc
In short: as §1

Neu5Ac(a2-3)Gal = target: Neu5Ac(a2-3)Gal
In short: as §1

[20] = target: Neu5Ac(a2-3)Gal(b1-3)GalNAc
In short: as §1

[21] = target: Neu5Ac(a2-3)Gal(b1-3)GalNAc(b1-3)Gal(a1-4)Gal(b1-4)Glc
In short: as §1

[22] = target: Neu5Ac(a2-3)Gal(b1-3)GalNAc(b1-4)[Neu5Ac(a2-3)]Gal(b1-4)Glc
In short: as §1

[23] = target: Neu5Ac(a2-3)Gal(b1-3)GalNAc(b1-4)[Neu5Ac(a2-8)Neu5Ac(a2-3)]Gal(b1-4)Glc
In short: as §1

[24] = target: Neu5Ac(a2-3)Gal(b1-3)GalNAc6S
In short: as §1

[25] = target: Neu5Ac(a2-3)Gal(b1-3)GlcNAc
In short: as §1

[26] = target: Neu5Ac(a2-3)Gal(b1-3)GlcNAc(b1-2)Man
In short: as §1

[27] = target: Neu5Ac(a2-3)Gal(b1-3)GlcNAc(b1-2)Man(a1-3)[GlcNAc(b1-4)][Neu5Ac(a2-3)Gal(b1-3)GlcNAc(b1-2)Man(a1-6)]Man(b1-4)GlcNAc(b1-4)GlcNAc
In short: as §1

[28] = target: Neu5Ac(a2-3)Gal(b1-3)GlcNAc(b1-2)Man(a1-3)[Neu5Ac(a2-3)Gal(b1-3)GlcNAc(b1-2)Man(a1-6)]Man(b1-4)GlcNAc(b1-4)GlcNAc
In short: as §1

[29] = target: Neu5Ac(a2-3)Gal(b1-3)GlcNAc(b1-3)Gal(b1-3)GlcNAc
In short: as §1

[30] = target: Neu5Ac(a2-3)Gal(b1-3)GlcNAc(b1-3)Gal(b1-4)GlcNAc
In short: as §1

[31] = target: Neu5Ac(a2-3)Gal(b1-3)GlcNAc(b1-3)GalNAc
In short: as §1

[32] = target: Neu5Ac(a2-3)Gal(b1-3)GlcNAc(b1-4)Gal(b1-4)Glc
In short: as §1

[33] = target: Neu5Ac(a2-3)Gal(b1-3)GlcNAc(b1-6)GalNAc
In short: as §1

B1: VLRB.aGPA.23-GCN4-biotin (Petromyzon marinus) (protein)
chain: ACPSQCSCSGTEVNCAGKSLASVPAGIPTTTRVLYLNSNQITKLEPGVFDRLANLRELHLWGNQLVSLPPGVFDNLANLEKLWLNSNQLTSLPAGLFDRLVNLEHLGLCCMKLTELPSGAFDKLTRLKQLGLDQNQLKSIPDGAFARLPSLTHVWLHTNPWDCQCTDILYLSGWVAQHSSIVGEGWPWRHSPDSAKCSGTNTPVRAVTEASTSPSKCP
With B1 the “glycan array binding signal (z-score)” value [1] was -0.086, the “glycan array binding signal (z-score)” value [2] was -0.077 and the “glycan array binding signal (z-score)” value [3] was -0.076. The “glycan array binding signal (z-score)” value [4] was -0.084, the “glycan array binding signal (z-score)” value (GlcNAc(b1-6)GalNAc) was -0.082 and the “glycan array binding signal (z-score)” value [5] was -0.08. For the same binder, the “glycan array binding signal (z-score)” value (Kdn(a2-3)Gal(b1-3)GalNAc) was -0.076, the “glycan array binding signal (z-score)” value (Kdn(a2-3)Gal(b1-3)GlcNAc) was -0.08 and the “glycan array binding signal (z-score)” value (Kdn(a2-3)Gal(b1-4)Glc) was -0.079. For the same binder, the “glycan array binding signal (z-score)” value (Kdn(a2-3)Gal(b1-4)GlcNAc) was -0.08, the “glycan array binding signal (z-score)” value [6] was -0.073 and the “glycan array binding signal (z-score)” value (Kdn(a2-6)Gal(b1-4)GlcNAc) was -0.082. The “glycan array binding signal (z-score)” value [7] was -0.071, the “glycan array binding signal (z-score)” value [8] was -0.059 and the “glycan array binding signal (z-score)” value (Man(a1-2)Man(a1-3)Man) was -0.083. The “glycan array binding signal (z-score)” value [9] was -0.082, the “glycan array binding signal (z-score)” value [10] was -0.081 and the “glycan array binding signal (z-score)” value [11] was -0.043. The “glycan array binding signal (z-score)” value [12] was -0.072, the “glycan array binding signal (z-score)” value [13] was -0.081 and the “glycan array binding signal (z-score)” value [14] was -0.086. The “glycan array binding signal (z-score)” value (Man(a1-3)[Man(a1-6)]Man) was -0.082, the “glycan array binding signal (z-score)” value [15] was 0.041 and the “glycan array binding signal (z-score)” value [16] was -0.08. The “glycan array binding signal (z-score)” value [17] was -0.08, the “glycan array binding signal (z-score)” value [18] was -0.061 and the “glycan array binding signal (z-score)” value [19] was -0.074. For the same binder, the “glycan array binding signal (z-score)” value (Man(a1-6)Man) was -0.075, the “glycan array binding signal (z-score)” value (Man(b1-4)GlcNAc) was -0.078 and the “glycan array binding signal (z-score)” value (MurNAc(b1-4)GlcNAc) was -0.088. For the same binder, the “glycan array binding signal (z-score)” value (Neu5Ac(a2-3)Gal) was -0.084, the “glycan array binding signal (z-score)” value [20] was -0.08 and the “glycan array binding signal (z-score)” value [21] was -0.079. The “glycan array binding signal (z-score)” value [22] was -0.073, the “glycan array binding signal (z-score)” value [23] was -0.073 and the “glycan array binding signal (z-score)” value [24] was -0.082. For the same binder, the “glycan array binding signal (z-score)” value [25] was -0.063, the “glycan array binding signal (z-score)” value [26] was -0.081 and the “glycan array binding signal (z-score)” value [27] was -0.084. The “glycan array binding signal (z-score)” value [28] was -0.077, the “glycan array binding signal (z-score)” value [29] was -0.081 and the “glycan array binding signal (z-score)” value [30] was -0.087. For the same binder, the “glycan array binding signal (z-score)” value [31] was -0.08, the “glycan array binding signal (z-score)” value [32] was -0.079 and the “glycan array binding signal (z-score)” value [33] was -0.087.
